According to patent publication US20090162353A1 (MacroGenics, published 2009):

Target: vaccinia virus recombinant B5 protein (vaccinia virus)
Assay: ELISA, B5 capture, IgG detect (luminescence) [C]

B1: Ch12F (antibody, V domains shown)
VH: EVQLLESGAEVKKPGESLKISCKGSGYTFASYWIVWVRQMPGKGLEYMGSIYPGDSGTRYSPSFRGQVTISADKSINTAYLQWGSLKASDTAFYYCARLKPLRGSLFGEPIGPYDYWGQATLVTVSS
VL: ELALTQPASVSGSPGQSITISCTGTSSDVGGYNAVSWYQQHPGKAPKLMIYEVNKRPSGVSNRFSGSKSGNTASLTISGLQAEDEADYYCSSYRSGGTVVFGGGTKLTVLG
B1: no binding (tested: 1 ug/ml).
